Experimental data reported in patent US11096942B2, “Heterocyclic compounds and uses thereof” (Celgene CAR LLC, priority 2010, dated 2021).

Columns and labels:
[1] = target: T1, EGFR T790M/L858R (Homo sapiens (Human), UniProt P00533, L858R/T790M); assay type: binding; conditions: whole protein MS analysis
[2] = target: T1, EGFR T790M/L858R; experiment: Omnia assay, EGFR (T790M/L858R) active enzyme; conditions: biochemical, WT EGFR vs EGFR T790M/L858R
Description: Kinase reactions were started with the addition of 45 μL of the ATP/Tyr-Sox peptide substrate mix and monitored every 71 seconds for 60 minutes at λex360/λem485 in a Synergy^4 plate reader from BioTek (Winooski, Vt.).

C=CC(=O)Nc1cccc(Oc2nc(Nc3ccc(N4CCOCC4)cc3OC)ncc2C(F)(F)F)c1 [Compound I-1, N-(3-(2-(2-methoxy-4-morpholinophenylamino)-5-(trifluoromethyl)pyrimidin-4-yloxy)phenyl)acrylamide]
covalent modification of EGFR T790M/L858R [1]: covalently modify the protein | Ratio WT/mutant [2]: >40

C=CC(=O)Nc1cccc(Oc2nc(Nc3ccc(N4CCN(C(=O)CO)CC4)cc3OC)ncc2Cl)c1 [Compound I-3, N-(3-(5-chloro-2-(4-(4-(2-hydroxyacetyl)piperazin-1-yl)-2-methoxyphenylamino)pyrimidin-4-yloxy)phenyl)acrylamide]
covalent modification of EGFR T790M/L858R [1]: covalently modify the protein | Ratio WT/mutant [2]: >5

C=CC(=O)Nc1cccc(Nc2nc(Nc3ccc(N4CCCN(C(=O)C(F)(F)F)CC4)cc3OC)ncc2C(F)(F)F)c1 [Compound I-19, N-(3-(2-(2-methoxy-4-(4-(2,2,2-trifluoroacetyl)-1,4-diazepan-1-yl)phenylamino)-5-(trifluoromethyl)pyrimidin-4-ylamino)phenyl)acrylamide]
Ratio WT/mutant [2]: >50

C=CC(=O)Nc1cccc(Oc2nc(Nc3ccc(N4CCN(C(=O)OC(C)(C)C)CC4)cc3OCC)ncc2Cl)c1 [Compound I-18, tert-butyl 4-(4-(4-(3-acrylamidophenoxy)-5-chloropyrimidin-2-ylamino)-3-ethoxyphenyl)piperazine-1-carboxylate]
Ratio WT/mutant [2]: >50

C=CC(=O)Nc1cccc(Nc2nc(Nc3ccc(N4CCN(C(C)=O)[C@H](C(=O)OC)C4)cc3OC)ncc2C(F)(F)F)c1 [Compound I-48, (S)-methyl 1-acetyl-4-(4-(4-(3-acrylamidophenylamino)-5-(trifluoromethyl)pyrimidin-2-ylamino)-3-methoxyphenyl)piperazine-2-carboxylate]
Ratio WT/mutant [2]: >25

C=CC(=O)Nc1cccc(Nc2nc(Nc3ccc(N4CCN(C(C)=O)CC4)cc3OC(F)(F)F)ncc2C(F)(F)F)c1 [Compound I-33, N-(3-(2-(4-(4-acetylpiperazin-1-yl)-2-(trifluoromethoxy)phenylamino)-5-(trifluoromethyl)pyrimidin-4-ylamino)phenyl)acrylamide]
Ratio WT/mutant [2]: >10
